# In the supplement of paper PMC8728848:
# Some of the results follow.
# Assays:
# Assay in all cases: glycan array binding signal (z-score within array); higher = stronger binding
# Settings in all cases: glycan notation: IUPAC condensed, linker removed
# [1] = target: Neu5Ac(a2-6)Gal(b1-4)Glc
# Procedure, shortened: (§1)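 Negative Z-scores can be read as non-binding. The Z-score is calculated within each array and then averaged across arrays of one protein sequence at different concentrations or buffers and across linkers. Arrays, 3228 in all, were curated from the Consortium for Functional Glycomics database and kept only where the protein sequence was available.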
# [2] = target: Neu5Ac(a2-6)Gal(b1-4)GlcNAc
# Procedure, shortened: as §1
# [3] = target: Neu5Ac(a2-6)Gal(b1-4)GlcNAc(b1-2)Man
# Procedure, shortened: as §1
# [4] = target: Neu5Ac(a2-6)Gal(b1-4)GlcNAc(b1-2)Man(a1-3)Man(b1-4)GlcNAc(b1-4)GlcNAc
# Procedure, shortened: as §1
# [5] = target: Neu5Ac(a2-6)Gal(b1-4)GlcNAc(b1-2)Man(a1-3)[Gal(b1-4)GlcNAc(b1-2)Man(a1-6)]Man(b1-4)GlcNAc(b1-4)GlcNAc
# Procedure, shortened: as §1
# [6] = target: Neu5Ac(a2-6)Gal(b1-4)GlcNAc(b1-2)Man(a1-3)[GlcNAc(b1-2)Man(a1-6)]Man(b1-4)GlcNAc(b1-4)GlcNAc
# Procedure, shortened: as §1
# [7] = target: Neu5Ac(a2-6)Gal(b1-4)GlcNAc(b1-2)Man(a1-3)[GlcNAc(b1-4)][Neu5Ac(a2-6)Gal(b1-4)GlcNAc(b1-2)Man(a1-6)]Man(b1-4)GlcNAc(b1-4)GlcNAc
# Procedure, shortened: as §1
# [8] = target: Neu5Ac(a2-6)Gal(b1-4)GlcNAc(b1-2)Man(a1-3)[Man(a1-6)]Man(b1-4)GlcNAc(b1-4)GlcNAc
# Procedure, shortened: as §1
# [9] = target: Neu5Ac(a2-6)Gal(b1-4)GlcNAc(b1-2)Man(a1-3)[Neu5Ac(a2-3)Gal(b1-4)GlcNAc(b1-2)Man(a1-6)]Man(b1-4)GlcNAc(b1-4)GlcNAc
# Procedure, shortened: as §1
# [10] = target: Neu5Ac(a2-6)Gal(b1-4)GlcNAc(b1-2)Man(a1-3)[Neu5Ac(a2-6)Gal(b1-4)GlcNAc(b1-2)Man(a1-6)]Man(b1-4)GlcNAc(b1-4)GlcNAc
# Procedure, shortened: as §1
# [11] = target: Neu5Ac(a2-6)Gal(b1-4)GlcNAc(b1-2)Man(a1-3)[Neu5Ac(a2-6)Gal(b1-4)GlcNAc(b1-2)Man(a1-6)]Man(b1-4)GlcNAc(b1-4)[Fuc(a1-6)]GlcNAc
# Procedure, shortened: as §1
# [12] = target: Neu5Ac(a2-6)Gal(b1-4)GlcNAc(b1-2)Man(a1-6)Man(b1-4)GlcNAc(b1-4)GlcNAc
# Procedure, shortened: as §1
# [13] = target: Neu5Ac(a2-6)Gal(b1-4)GlcNAc(b1-2)Man(a1-6)[Gal(b1-4)GlcNAc(b1-2)Man(a1-3)]Man(b1-4)GlcNAc(b1-4)GlcNAc
# Procedure, shortened: as §1
# [14] = target: Neu5Ac(a2-6)Gal(b1-4)GlcNAc(b1-2)Man(a1-6)[GlcNAc(b1-2)Man(a1-3)]Man(b1-4)GlcNAc(b1-4)GlcNAc
# Procedure, shortened: as §1
# [15] = target: Neu5Ac(a2-6)Gal(b1-4)GlcNAc(b1-2)Man(a1-6)[Man(a1-3)]Man(b1-4)GlcNAc(b1-4)GlcNAc
# Procedure, shortened: as §1
# [16] = target: Neu5Ac(a2-6)Gal(b1-4)GlcNAc(b1-2)[Neu5Ac(a2-6)Gal(b1-4)GlcNAc(b1-4)]Man(a1-3)[GlcNAc(b1-4)][Neu5Ac(a2-6)Gal(b1-4)GlcNAc(b1-2)[Neu5Ac(a2-6)Gal(b1-4)GlcNAc(b1-6)]Man(a1-6)]Man(b1-4)GlcNAc(b1-4)GlcNAc
# Procedure, shortened: as §1
# [17] = target: Neu5Ac(a2-6)Gal(b1-4)GlcNAc(b1-2)[Neu5Ac(a2-6)Gal(b1-4)GlcNAc(b1-4)]Man(a1-3)[GlcNAc(b1-4)][Neu5Ac(a2-6)Gal(b1-4)GlcNAc(b1-4)Man(a1-6)]Man(b1-4)GlcNAc(b1-4)GlcNAc
# Procedure, shortened: as §1
# [18] = target: Neu5Ac(a2-6)Gal(b1-4)GlcNAc(b1-2)[Neu5Ac(a2-6)Gal(b1-4)GlcNAc(b1-6)]Man(a1-6)[Neu5Ac(a2-6)Gal(b1-4)GlcNAc(b1-2)Man(a1-3)][GlcNAc(b1-4)]Man(b1-4)GlcNAc(b1-4)GlcNAc
# Procedure, shortened: as §1
# [19] = target: Neu5Ac(a2-6)Gal(b1-4)GlcNAc(b1-3)Gal(b1-3)GlcNAc
# Procedure, shortened: as §1
# [20] = target: Neu5Ac(a2-6)Gal(b1-4)GlcNAc(b1-3)Gal(b1-4)GlcNAc
# Procedure, shortened: as §1
# [21] = target: Neu5Ac(a2-6)Gal(b1-4)GlcNAc(b1-3)Gal(b1-4)GlcNAc(b1-2)Man(a1-3)[Neu5Ac(a2-6)Gal(b1-4)GlcNAc(b1-3)Gal(b1-4)GlcNAc(b1-2)Man(a1-6)]GalNAc
# Procedure, shortened: as §1
# [22] = target: Neu5Ac(a2-6)Gal(b1-4)GlcNAc(b1-3)Gal(b1-4)GlcNAc(b1-3)Gal(b1-4)GlcNAc
# Procedure, shortened: as §1
# [23] = target: Neu5Ac(a2-6)Gal(b1-4)GlcNAc(b1-3)Gal(b1-4)GlcNAc(b1-3)Gal(b1-4)GlcNAc(b1-2)Man(a1-3)[Neu5Ac(a2-6)Gal(b1-4)GlcNAc(b1-3)Gal(b1-4)GlcNAc(b1-3)Gal(b1-4)GlcNAc(b1-2)Man(a1-6)]GalNAc
# Procedure, shortened: as §1
binder,measurement,setting,value
PX9937A-bvu-521-23-521 (Bacteroides vulgatus) (protein) LDLAPEDYYGAGNFWKEASQPKAFMLGLHAQLRSYYDMFYTLGELRGGTQRVGTSSLNTSLNYADIRSQNISEDIPGISNWNGLYSPIMQVNHFIQEVENGCTFLDDATRSRYLGQAYGMRALYYFMLYRTFGGVPLITKVDILDGKPSADKFYVERATPEATMEFIKADINKSENYFGNNTSFDAYDWSRYATLMLKAEIYMWAAKVSITGFTATGATDLQTAKTALSGIIGHFELMDNFASIFSCDNKKNTEIIFAMPFIEGEASNDGGRFLYQDAVFLGQAYGRNGKVIEKDTLNLKGTGGVFRDEYTEDFWKTFKEGDSRRDATFMEYYMKNDNGTLSEFGCVMKKRIGTINSNDNRIYISDIPVYRYADALLMMAEIENGLNNPCASYINEVRKRAYGDTFEENKYTEGSYAENELAILQERDKEFVSEGKRWFDVLRMHDASGRSLVFSANANYPGTNPILGTEEAYKMLWPVNIGTLNVNPLLTQTPGYGKK,glycan array binding signal (z-score),[1],-0.465
same,glycan array binding signal (z-score),[2],0.247
same,glycan array binding signal (z-score),[3],-0.33
same,glycan array binding signal (z-score),[4],-0.145
same,glycan array binding signal (z-score),[5],-0.295
same,glycan array binding signal (z-score),[6],-0.698
same,glycan array binding signal (z-score),[7],0.052
same,glycan array binding signal (z-score),[8],0.002
same,glycan array binding signal (z-score),[9],-0.403
same,glycan array binding signal (z-score),[10],-0.103
same,glycan array binding signal (z-score),[11],-0.08
same,glycan array binding signal (z-score),[12],-0.252
same,glycan array binding signal (z-score),[13],-0.132
same,glycan array binding signal (z-score),[14],-0.416
same,glycan array binding signal (z-score),[15],-0.272
same,glycan array binding signal (z-score),[16],0.053
same,glycan array binding signal (z-score),[17],-0.124
same,glycan array binding signal (z-score),[18],-0.358
same,glycan array binding signal (z-score),[19],-0.411
same,glycan array binding signal (z-score),[20],-0.299
same,glycan array binding signal (z-score),[21],0.061
same,glycan array binding signal (z-score),[22],-0.211
same,glycan array binding signal (z-score),[23],0.232
